The text below walks through data of publication PMC4336329 (PLoS ONE, 2015).

About 2,200 (0.71%) of roughly 310,000 compounds showed an effect of 50% or more. Effects have a minus sign here. The list shows a part of the results.

human ether-à-go-go-related gene (hERG) potassium channel, sequence (Q12809 whole entry, looked up): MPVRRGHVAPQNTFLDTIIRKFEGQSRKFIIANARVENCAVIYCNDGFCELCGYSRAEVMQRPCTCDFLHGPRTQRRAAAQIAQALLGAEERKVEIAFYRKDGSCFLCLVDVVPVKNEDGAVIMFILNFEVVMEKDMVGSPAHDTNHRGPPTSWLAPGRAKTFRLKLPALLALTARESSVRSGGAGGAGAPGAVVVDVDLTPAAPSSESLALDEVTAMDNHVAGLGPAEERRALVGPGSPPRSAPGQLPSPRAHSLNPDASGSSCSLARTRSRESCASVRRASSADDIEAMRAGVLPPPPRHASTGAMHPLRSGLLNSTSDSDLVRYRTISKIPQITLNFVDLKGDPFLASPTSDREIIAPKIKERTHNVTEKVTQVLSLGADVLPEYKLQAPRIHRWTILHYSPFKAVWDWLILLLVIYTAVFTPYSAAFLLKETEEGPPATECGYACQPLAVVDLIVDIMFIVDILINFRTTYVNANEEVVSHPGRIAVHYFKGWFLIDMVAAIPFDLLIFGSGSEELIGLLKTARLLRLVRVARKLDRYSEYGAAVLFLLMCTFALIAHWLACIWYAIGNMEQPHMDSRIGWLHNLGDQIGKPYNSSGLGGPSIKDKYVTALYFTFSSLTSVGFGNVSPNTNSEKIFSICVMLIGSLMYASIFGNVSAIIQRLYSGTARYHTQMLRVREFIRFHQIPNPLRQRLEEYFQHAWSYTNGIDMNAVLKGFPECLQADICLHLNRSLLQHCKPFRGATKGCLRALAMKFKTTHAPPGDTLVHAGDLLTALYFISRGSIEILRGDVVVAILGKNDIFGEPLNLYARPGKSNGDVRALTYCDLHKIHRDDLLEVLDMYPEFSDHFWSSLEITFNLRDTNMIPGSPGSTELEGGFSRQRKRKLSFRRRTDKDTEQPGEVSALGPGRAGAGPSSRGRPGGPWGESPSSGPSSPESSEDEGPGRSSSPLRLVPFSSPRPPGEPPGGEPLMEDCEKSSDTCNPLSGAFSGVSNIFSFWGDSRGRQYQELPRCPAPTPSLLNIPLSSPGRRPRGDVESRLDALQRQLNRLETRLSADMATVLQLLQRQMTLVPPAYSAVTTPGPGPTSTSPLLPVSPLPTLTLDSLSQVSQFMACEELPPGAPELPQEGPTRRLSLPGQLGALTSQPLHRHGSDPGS

The assay concerns the target human ether-à-go-go-related gene (hERG) potassium channel (human, UniProt Q12809). The experiment in a line: primary screen, population patch clamp on CHO cells stably expressing hERG.
In the case of `Cc1ccc(OCC(=O)Oc2c(C)cccc2C)cc1C`, the “hERG current change (%, negative = inhibition) at 1uM” value is on record as 17%.

`CC(C)(C)C(=O)NC1CC2CCCC(C1)N2C(=O)Nc1ccccc1F` (centres unmarked): the “hERG current change (%, negative = inhibition) at 1uM” value turned out to be 17.7%.

As for `CCOC(=O)c1c(C)c(C(=O)NCc2ccccc2OC)c(C)n1C`, the “hERG current change (%, negative = inhibition) at 1uM” value was -4.27%.

In the case of `CC(C)(C)c1cc(CN(CCO)CCO)c(O)c(C(C)(C)C)c1`, the “hERG current change (%, negative = inhibition) at 1uM” value is listed as -12.7%.

For the compound `CC(=O)Nc1ccc(-c2csc(NCCc3ccccc3)n2)cc1`, the “hERG current change (%, negative = inhibition) at 1uM” value was 18.4%.

With `CCCCn1nc(C(=O)O)ccc1=O`, the “hERG current change (%, negative = inhibition) at 1uM” value stood at 18.9%.

Consider `Cc1ccc(C(=O)OCC(=O)NCC(F)(F)F)cc1C`, for which the “hERG current change (%, negative = inhibition) at 1uM” value was 10.1%.

For the compound `Cl.O=C(NC1CCN(Cc2ccccc2)CC1)c1cccc(OC(F)F)c1`, the “hERG current change (%, negative = inhibition) at 1uM” value is -45.2%.

Turning to `Cc1nn(-c2ccccc2)c(Cl)c1C(=O)N(C)c1nc(-c2ccc(F)cc2)cs1`, the “hERG current change (%, negative = inhibition) at 1uM” value is on record as 15%.

Take `O=C(NC(=S)NCCCN1CCOCC1)c1ccc(Br)cc1`: the “hERG current change (%, negative = inhibition) at 1uM” value was 0.801%.

Consider `O=C(Nc1ccc2oc(=O)ccc2c1)c1ccc(-c2ccc(Cl)cc2)o1`, for which the “hERG current change (%, negative = inhibition) at 1uM” value is listed as 4.96%.

In the case of `COc1ccc(S(=O)(=O)N(CC(=O)Nc2cc(C)on2)Cc2ccccc2)cc1`, the “hERG current change (%, negative = inhibition) at 1uM” value was 15.2%.

For `Cc1cc(NC(=O)C(C)C)ncc1NC(=O)CCc1ccccc1`, the “hERG current change (%, negative = inhibition) at 1uM” value came out at 8.95%.

Consider `CC[C@@]12C(=O)N(c3cccc(Cl)c3)C(=O)N1[C@H](c1ccc(Br)cc1)[C@@H]1C(=O)N(C(C)(C)C)C(=O)[C@@H]12`, for which the “hERG current change (%, negative = inhibition) at 1uM” value amounted to 8.52%.

With `CCOc1ccccc1N1CCN(C(=O)NC(C)c2ccc(F)c(F)c2)CC1` (centres unmarked), the “hERG current change (%, negative = inhibition) at 1uM” value was found to be 18.9%.

With `CCOC(=O)NN1C(=O)c2ccccc2NC1c1ccc(OC)cc1` (centres unmarked), the “hERG current change (%, negative = inhibition) at 1uM” value is 13.8%.

`COc1ccccc1CNC(=O)C(C)n1cccc1C(=O)c1ccccc1` (centres unmarked): the “hERG current change (%, negative = inhibition) at 1uM” value is listed as 5.6%.

Regarding `COc1ccc(-n2c(C)cc(C)c(C(C)=O)c2=S)cc1`, the “hERG current change (%, negative = inhibition) at 1uM” value was 6.35%.

Take `COc1ccc2[nH]cc(/C=C/c3cc[n+](C)cc3)c2c1.[I-]`: the “hERG current change (%, negative = inhibition) at 1uM” value amounted to 9.56%.

For `CCC(=O)Nc1ccc(S(=O)(=O)Nc2c(NC)c3ccccc3oc2=O)cc1`, the “hERG current change (%, negative = inhibition) at 1uM” value is 15.1%.

With `CN1C(=O)N(C)C(=O)C2(Cc3c(nc4ccccn4c3=O)N3CCc4ccccc4C32)C1=O` (centres unmarked), the “hERG current change (%, negative = inhibition) at 1uM” value is given as 1.97%.

With `Cn1c(C(=O)N2CCCc3ccccc32)cc2sccc21`, the “hERG current change (%, negative = inhibition) at 1uM” value worked out at 4.99%.

As to `COc1ccc(C[C@@H]2CN3C(=NC[C@@H]3C)N2C[C@H](C)NC(=O)CCC2CCCCC2)cc1`, the “hERG current change (%, negative = inhibition) at 1uM” value was -20.8%.

For `O=c1cc(-c2ccc(Cl)cc2)[nH][nH]1`, the “hERG current change (%, negative = inhibition) at 1uM” value amounted to 2.37%.

Take `COc1ccc(OCCOC(=O)c2[nH]c(C)c(C(C)=O)c2C)cc1`: the “hERG current change (%, negative = inhibition) at 1uM” value amounted to 8.51%.

`CC(NC(=O)COC(=O)/C=C/c1cccc(C(F)(F)F)c1)c1ccccc1` (centres unmarked): the “hERG current change (%, negative = inhibition) at 1uM” value was 9.27%.

On to `O=C(Nc1sc2c(c1C(=O)O)CCCC2)c1cccc(Cl)c1`, for which the “hERG current change (%, negative = inhibition) at 1uM” value is given as 21.5%.

Regarding `COc1ccc(C(=O)Nc2nc(C)c(C(C)=O)s2)cc1S(=O)(=O)N1CCOCC1`, the “hERG current change (%, negative = inhibition) at 1uM” value amounted to 2.17%.

As to `C(=N\n1cnnc1)/C1CCCCC1`, the “hERG current change (%, negative = inhibition) at 1uM” value worked out at 10.9%.

Turning to `Cc1cc([N+](=O)[O-])nn1CC(=O)NC1CCCCC1`, the “hERG current change (%, negative = inhibition) at 1uM” value is 13.5%.

For the compound `CC1CCCCN1CCCNC(=O)c1nn(C)c2c1CS(=O)(=O)c1ccccc1-2` (centres unmarked), the “hERG current change (%, negative = inhibition) at 1uM” value is reported as 13.4%.

In the case of `CCCCNC(=O)CC1N=C2c3ccccc3N=C(SCC(=O)Nc3ccccc3OC)N2C1=O` (centres unmarked), the “hERG current change (%, negative = inhibition) at 1uM” value was 5.85%.

With `O=C(CSc1nc2ccccc2n1CCc1ccccc1)N1CCOCC1`, the “hERG current change (%, negative = inhibition) at 1uM” value was determined as 8.22%.

With `COc1ccc(-c2cc3c(=O)n(CC(=O)NCCCN4CCC(Cc5ccccc5)CC4)ncn3n2)cc1`, the “hERG current change (%, negative = inhibition) at 1uM” value is reported as -6.98%.

As to `Cc1ccc(C(=O)CC(=O)COc2ccc(Cl)cc2C)cc1`, the “hERG current change (%, negative = inhibition) at 1uM” value is -3%.

Take `CC(=O)N1CCOc2ccc(S(=O)(=O)NCC3CCC(C(=O)NCCC(C)C)CC3)cc21` (centres unmarked): the “hERG current change (%, negative = inhibition) at 1uM” value amounted to 12.4%.

Consider `O=Cc1sc(Nc2ccccc2)nc1Cl`, for which the “hERG current change (%, negative = inhibition) at 1uM” value was -0.131%.

`O=C(CCn1c(=O)[nH]c2ccsc2c1=O)Nc1ccc(F)c(F)c1`: the “hERG current change (%, negative = inhibition) at 1uM” value came to 17.4%.

As to `Cc1ccccc1NC(=O)C1CCCN(S(=O)(=O)c2c(C)noc2C)C1` (centres unmarked), the “hERG current change (%, negative = inhibition) at 1uM” value was found to be 10.1%.

As to `COC(=O)C1CCN(C(=O)C2CCCCC2)CC1`, the “hERG current change (%, negative = inhibition) at 1uM” value was 4.7%.

On to `Cc1ccc(C(=O)NCCc2nnc3ccc(NCc4ccc5c(c4)OCO5)nn23)cc1`, for which the “hERG current change (%, negative = inhibition) at 1uM” value was found to be 5.72%.

Consider `O=C(Cn1c(=O)oc2cc(S(=O)(=O)N3CCCCCC3)ccc21)NC1CCCCC1`, for which the “hERG current change (%, negative = inhibition) at 1uM” value came out at 12.6%.

Regarding `COP1(=O)C[C@@H](O)[C@@H](O)[C@@H](COCc2ccccc2)O1` (some centres unmarked), the “hERG current change (%, negative = inhibition) at 1uM” value is given as 8.53%.

Consider `O=C(CSCc1ccccc1)N1CCN(c2ccccc2)CC1`, for which the “hERG current change (%, negative = inhibition) at 1uM” value is reported as -7.13%.
